# This is one part of the list.
# Test system: PF3D7_0420300 AP2 domain 1 (GST-tagged)
# Experiment: gcPBM binding intensity (ln(normalized median fluorescence intensity)); higher = stronger DNA binding
# Summary of the method: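 DNA-binding domains from P. falciparum, fused to GST and produced in E. coli, were put on an Agilent 4 × 180k double-stranded probe array for 1 h in 1× PBS holding 1% milk, 0.2 mg/ml BSA, 0.5% salmon testes DNA and 0.03% Triton X-100. Probes were primer-extended, 36 bp long and drawn from intergenic genomic regions, with negative controls included. After Alexa488 anti-GST antibody detection and a 488 nm scan, binding intensity was set as the highest Masliner-normalised natural-log median intensity across replicate spots of either probe orientation.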
row,Sequence,gcPBM binding intensity (ln)
1,AACTAATAAAAAAAAAGTACACAATATGTAAATAAC [XGTACX_site5263],9.76
2,AAGCGAATATATATCACACACAAAAAAATCAGACTA [CACACA_site2108],9.74
3,AATTATTGTGAAGGGAAAACAAAAAAGTTTATAATT [CACACA_negctrl_site1337],9.23
4,AACAAATATATTAACACACAAACATATAAACCAATG [CACACA_site3970],10
5,TATATATTATATATATGTACATACTTTTTACGTTCA [XGTACX_site2493],9.3
6,ACCACATTTTTTTTTGCATGTTGTTTAAAAAAAGGC [TGCATGCA_site137],9.01
7,AATTTTTTTCTCCAAGTGCATTAGAACATTAACGTA [GTGCAC_site9413],8.96
8,ATATATTTATGTATCACACACAAAAAAAAAAAATAA [CACACA_site255],9.54
9,TATAAAAAATAATTATCATGAAATATATGATCATCA [TGCATGCA_negctrl_site137],9.19
10,ATTATTATTTATATGATACACACGTACATATACGCA [CACACA_site3823],9.3
11,TATATTTTTTATAAATGTACATGGATAGGCATAAAC [XGTACX_site8401],9.52
12,TTAAAAAAAATATAATGTACTTGTAGAATTATATTT [XGTACX_site6220],8.95
13,ATATGAATAAATAAAAGTACATACATAATGTATTAT [XGTACX_site5969],9.34
14,TCAAAAATGAGTTACACACACACATATATATATATA [CACACA_site2229],9.91
15,AGTATATAAAATACTGTATCGATGGGGGAGGGCGCA [CACACA_negctrl_site1612],10
16,ACAAATAAATAAAAAACACACACAAATAAATAAATA [CACACA_site8708],10.1
17,TAATAATAAAATATTTGTACATATAAAATATGGCTG [XGTACX_site7904],9.2
18,AATATAATGCAATATACACACATATATTTCTCTTTT [CACACA_site7276],9.49
19,AAGGAAATAATTAAATGTACAAAAAAAAAAAAAATT [XGTACX_site562],9.4
20,TACAAACAAACACATAGCAATATATGTTATCAAAAA [XGTACX_negctrl_site1],9.37
21,ATATTTTTTTTTCTTTCGCACACGTGAAAGAATTTC [CACACA_site8636],9.28
22,TTTTATGCTCAATTATTAAGAAATACTTTTTCTTCC [XGTACX_negctrl_site208],8.92

row,Sequence,gcPBM binding intensity (ln)
1,AAAATAAAAATTAACTGTACATACATTATTCAAATT [XGTACX_site6106],9.19
2,TCCTTATTTTGCAGGAGTACCATTTTTTAAAAATAC [XGTACX_site5968],9.11
3,AATAACAATTATAAAAGTACAGATTTTTATTTCTAA [XGTACX_site5746],9.1
4,ACAATTACTTATTTTAATTTTTTTAATCTATTGATT [CACACA_negctrl_site967],9.13
5,TTTTTTTTGTTATGAACATGCAAATTAAAATATAAT [TGCATGCA_site954],8.86
6,CAACAATTTCGTCATACACACATTCAGAATATATAT [CACACA_site2370],9.53
7,TACTTTTCTTAAAGATGTACGTTTTAAAAATAAAAT [XGTACX_site14],8.8
8,TAAATACATAAAAATTGTACACATTGTTTTCTCTTT [XGTACX_site6435],9.29
9,TATAGTAATATTTGAAGTACAAAATTAAAATAAATA [XGTACX_site7634],9.37
10,TTAAATAGCTGTAATTGTACAAATAAATACATAAAT [XGTACX_site3097],9.34
11,TTATATAAGGTCTATATATAAATATTAATGATAAGG [TGCATGCA_negctrl_site354],9.06
12,GGGAGGATATTTCACAGTACCCAGGAAATCTGCGGA [XGTACX_site2555],8.89
13,TAAATATATATATGGTGTACCATTTTGGGTTAATAT [XGTACX_site2706],9.16
14,TTAATATTTTGATGTGTACACATTAAAATAGTTTTA [CACACA_site5712],9.03
15,TATATTATTTTTTATTGTACTTAAAAATATTATTTG [XGTACX_site1443],9.09
16,AGAAGTTTATCTTTTAGTACGCATAAAAAAAAAAAA [XGTACX_site2359],8.86
17,TATAAATAATTATATTGTACTCTTTATATTTTTCTT [XGTACX_site5335],9.24
18,AATAATATATAAGAAAGTACAAAAAAATAAAATAAA [XGTACX_site3302],9.59
19,TTTTAATGAAATATCAAAAAAATTTATGATTTCAAA [GTGCAC_negctrl_site662],8.47
20,AAAAAGAAAAAACTTACACACATATATACACCCATG [CACACA_site8079],10.1
21,TTCTTTTTTTTTTTTTTTTTTTTATAGTACAAAAAA [TGCATGCA_negctrl_site450],8.91

# — the supplement of paper PMC11417369
